According to paper PMC3199943, “Screening the MayBridge Rule of 3 Fragment Library for Compounds That Interact with the Trypanosoma brucei myo-Inositol-3-Phosphate Synthase and/or Show Trypanocidal Activity” (Molecular Biology International, 2011):

Test system: cultured bloodstream T. brucei (strain 427)
Assay: microbe, parasite or virus in culture
Conditions: Trypanosoma brucei
[1] = read-out: T. brucei Alamar Blue
[2] = read-out: T. brucei Alamar Blue (% survival)
[3] = read-out: T. brucei Alamar Blue, Supplementary Table 1, compound 0.5 mM, percentage of controls in the absence of compound, mean ± SD (n=3) or SE (n=2)

SMILES	viability at 500 µM [1]	further results
Oc1nc2ccc(Cl)cc2o1 [compound 342, 6‐chloro‐1,3‐benzoxazol‐2‐ol]	111 ± 3.1%	
OCc1ccc(-c2cncnc2)cc1 [compound 505, (4‐pyrimidin‐5‐ylphenyl)methanol]	107 ± 3.1%	
c1ccc2c(c1)CCO2 [compound 49, 2,3‐dihydrobenzo[b]furan]	104 ± 18.1%	
O=C(O)c1cc2cccnc2s1 [compound 445, thieno[2,3‐b]pyridine‐2‐carboxylic acid]	97 ± 18.5%	
OCc1ncoc1-c1ccccc1 [compound 397, (5‐phenyl‐1,3‐oxazol‐4‐yl)methanol]	24.2 ± 6.1%	
NCc1ccccc1Cl [compound 136, 2‐chlorobenzylamine]	113 ± 5.8%	
O=C(O)CC12CC3CC(CC(C3)C1)C2 [compound 588, 2‐(1‐adamantyl)acetic acid]	48.1 ± 17.5%	
CCOC(=O)c1csc(C)n1 [compound 356, ethyl 2‐methyl‐1,3‐thiazole‐4‐carboxylate]	101 ± 3.7%	
COC(=O)c1ccc(F)cc1Cl [compound 531, methyl 2‐chloro‐4‐fluorobenzoate]	104 ± 17%	
Nc1cccc(CN2CCCC2)c1 [compound 415, 3‐(pyrrolidin‐1‐ylmethyl)aniline]	47.4 ± 18.4%	
OCc1cn2ccsc2n1 [compound 221, imidazo[2,1‐b]thiazol‐6‐ylmethanol]	97.7 ± 7%	
CCc1nc(C)c[nH]1 [compound 25, 2‐ethyl‐4‐methyl‐1H‐imidazole]	89.6 ± 2.5%	
OCc1ccc(-n2cccn2)cc1 [compound 385, [4‐(1H‐pyrazol‐1‐yl)phenyl]methanol]	78.3 ± 5%	
CCc1cccc(C(C)=O)c1 [compound 174, 1‐(3‐ethylphenyl)ethan‐1‐one]	107 ± 13.3%	
O=C(O)c1ccc(C(F)(F)F)cc1 [compound 539, 4‐(trifluoromethyl)benzoic acid]	80 ± 13.8%	
Cc1ccc2c(c1)OCO2 [compound 116, 5‐methyl‐1,3‐benzodioxole]	115 ± 5.4%	
OCc1ccc(Oc2ccccn2)cc1 [compound 629, [4‐(pyrid‐2‐yloxy)phenyl]methanol]	82 ± 5.4%	
Nc1cc(Cl)cc(Cl)c1 [compound 282, 3,5‐dichloroaniline]	78.4 ± 11.9%	
O=C1CCC(C(F)(F)F)CC1 [compound 317, 4‐(trifluoromethyl)cyclohexan‐1‐one]	106 ± 12.4%	
OCc1ccc(N2CCCC2)cc1 [compound 427, [4‐(1‐pyrrolidinyl)phenyl]methanol]	27.3 ± 5.7%	
OCc1ccccc1Oc1ccccc1 [compound 621, (2‐phenoxyphenyl)methanol]	45 ± 4.4%	
OCc1ccc(-c2ccncc2)cc1 [compound 488, (4‐pyrid‐4‐ylphenyl)methanol]	89.5 ± 10.5%	
O=C1CCC2CC1CCC2=O [compound 206, bicyclo[3.3.1]nonane‐2,6‐dione]	93.2 ± 7.8%	
CCOC(=O)CCc1ccc(O)cc1 [compound 585, ethyl 3‐(4‐hydroxyphenyl)propanoate]	43.8 ± 15.9%	
O=C(O)C1NCCS1 (stereo not drawn) [compound 103, 1,3-thiazolane-2-carboxylic acid]	77.9 ± 15.6%	viability at 500 µM [2]: 77.9 ± 15.6%
Cc1cc(C(=O)O)c(C)o1 [compound 130, 2,5‐dimethyl‐3‐furoic acid]	98.1 ± 6.8%	

SMILES	viability at 500 µM [1]	further results
OCCc1coc2ccccc12 [compound 284, 2‐benzo[b]furan‐3‐ylethanol]	68.3 ± 14.3%	
Nc1ccccc1OC(F)(F)F [compound 418, 2‐(trifluoromethoxy)aniline]	86.8 ± 2.2%	
Nc1cc(F)cc(F)c1 [compound 89, 3,5‐difluoroaniline]	112 ± 10.7%	
CC(C)(C)c1cccc(N)c1 [compound 179, 3‐(tert‐butyl)aniline]	92.3 ± 14.3%	
COC(=O)c1cccc2cc[nH]c12 [compound 396, methyl 1H‐indole‐7‐carboxylate]	35.3 ± 9.5%	
OCc1ccc(Oc2ccccc2)o1 [compound 540, (5‐phenoxy‐2‐furyl)methanol]	29.9 ± 2.8%	
O=C(O)Cc1ccc(Cl)c(Cl)c1 [compound 659, 2‐(3,4‐dichlorophenyl)acetic acid]	36.2 ± 19.3%	
Cc1ccc(C(N)=O)c(N)c1 [compound 190, 2-amino-4-methylbenzamide]	41.9 ± 11%	viability at 500 µM [2]: 41.9 ± 11%
FC(F)(F)c1cc[nH]n1 [compound 114, 3‐(trifluoromethyl)‐1H‐pyrazole]	86.2 ± 19.7%	
Nc1ccc2c(c1)OCCO2 [compound 193, 2,3‐dihydro‐1,4‐benzodioxin‐6‐amine]	29.5 ± 5.5%	
Cc1nc(C(N)=S)cs1 [compound 252, 2‐methyl‐1,3‐thiazole‐4‐carbothioamide]	92.9 ± 6.6%	
OCc1ccccc1Cl [compound 143, (2‐chlorophenyl)methanol]	88.5 ± 19.7%	
Nc1ccc2c(c1)OCO2 [compound 121, 1,3‐benzodioxol‐5‐amine]	42.4 ± 11.3%	
Cc1cccc(CN)c1C [compound 113, 2,3‐dimethylbenzylamine]	74.5 ± 13.2%	
Cc1nc(C(=O)O)cs1 [compound 146, 2‐methyl‐1,3‐thiazole‐4‐carboxylic acid]	102 ± 14.9%	
Cc1ccc(CO)o1 [compound 30, (5-methyl-2-furyl)methanol]	45 ± 14.1%	viability at 500 µM [2]: 45 ± 14.1%
OCc1ccc(-c2cccs2)cc1 [compound 544, (4‐thien‐2‐ylphenyl)methanol]	71.6 ± 7%	
OCCc1cccnc1 [compound 63, 2‐(3‐pyridyl)ethan‐1‐ol]	84.6 ± 9.4%	
O=C(O)c1nsc(Cl)c1Cl [compound 602, 4,5‐dichloroisothiazole‐3‐carboxylic acid]	31.7 ± 9.1%	
Nc1ccc(N2CCOCC2)cc1 [compound 435, 4‐morpholinoaniline]	21.3 ± 3.7%	
Nc1nsc(-c2ccccc2)n1 [compound 424, 5‐phenyl‐1,2,4‐thiadiazol‐3‐amine]	107 ± 4.7%	
O=C(O)C1CCCCO1 (stereo not drawn) [compound 93, tetrahydropyran‐2‐carboxylic acid]	67.2 ± 12%	
Cc1nc(N)ccc1C#N [compound 102, 6‐amino‐2‐methylnicotinonitrile]	68.4 ± 19.6%	
Nc1ccc(F)cc1F [compound 88, 2,4‐difluoroaniline]	45.4 ± 8.9%	
NC(=O)c1ccc(F)c(Cl)c1 [compound 380, 3‐chloro‐4‐fluorobenzamide]	90.8 ± 9.6%	
C#Cc1ccc(OC)cc1 [compound 96, 1‐eth‐1‐ynyl‐4‐methoxybenzene]	104 ± 18.1%	

SMILES	viability at 500 µM [1]	further results
O=C1CCOCC1 [compound 12, tetrahydro‐4H‐pyran‐4‐one]	103 ± 17.2%	
COC(=O)c1ccc(C)c(Cl)c1 [compound 484, methyl 3‐chloro‐4‐methylbenzoate]	98.3 ± 14%	
Oc1cccc(N2CCOCC2)c1 [compound 447, 3‐morpholinophenol]	70.4 ± 22.1%	
Cc1cc(N)n(C)n1 [compound 26, 1,3‐dimethyl‐1H‐pyrazol‐5‐amine]	97.8 ± 4.7%	
Cc1ccc2cc(CO)ccc2n1 [compound 374, (2‐methyl‐6‐quinolinyl)methanol]	74.9 ± 15.6%	
Oc1noc2ccccc12 [compound 112, benzo[d]isoxazol‐3‐ol]		viability at 500 µM [3]: 100 ± 3%
CNCc1cccnc1 [compound 57, N‐methyl‐N‐(3‐pyridylmethyl)amine]	111 ± 6.8%	
Cc1ccc(O)c2c1CCC2 [compound 173, 7‐methylindan‐4‐ol]	29.6 ± 6%	
N#Cc1cnccc1C(F)(F)F [compound 358, 4‐(trifluoromethyl)nicotinonitrile]	112 ± 7.2%	
O=C(O)c1cncc(-c2ccccc2)c1 [compound 615, 5‐phenylnicotinic acid]	77.6 ± 10.5%	
Nc1cccc(-c2ccsc2)c1 [compound 404, 3‐thien‐3‐ylaniline]	39.3 ± 5.7%	
Cc1csc2ncnc(Cl)c12 [compound 486, 4‐chloro‐5‐methylthieno[2,3‐d]pyrimidine]	125 ± 5%	
Cc1csc(CC#N)n1 [compound 126, 2-(4-methyl-1,3-thiazol-2-yl)acetonitrile]	75.3 ± 15.4%	viability at 500 µM [2]: 75.3 ± 15.4%
CC1CNC(C)CN1 (stereo not drawn) [compound 36, 2,5‐dimethylpiperazine]	81.1 ± 18.6%	
Cn1c(CO)cc2sccc21 [compound 331, (4-methyl-4H-thieno[3,2-b]pyrrol-5-yl)methanol]	31 ± 7.1%	viability at 500 µM [2]: 31 ± 7.1%; IC50 (read-out: T. brucei ED50, ED50 ± SD (n = 4)): 121 ± 15 µM
CC1(C)C=Cc2cc(C#N)ccc2O1 [compound 487, 2,2‐dimethyl‐2H‐chromene‐6‐carbonitrile]	80.4 ± 8.8%	
O=C(O)c1cccs1 [compound 85, thiophene‐2‐carboxylic acid]	101 ± 12.4%	
O=C(O)c1ccncc1 [compound 60, isonicotinic acid]	90.7 ± 13.8%	
CC(=O)CSc1ccc(C)cc1 [compound 460, 1‐[(4‐methylphenyl)thio]acetone]	34.1 ± 5.3%	
COC(=O)c1sccc1N [compound 241, methyl 3‐aminothiophene‐2‐carboxylate]	81.2 ± 4.1%	
Cc1cc(N)no1 [compound 9, 5‐methylisoxazol‐3‐amine]		viability at 500 µM [3]: 97 ± 14.3%
c1ccc(Cn2cccc2)nc1 [compound 249, 2‐(1H‐pyrrol‐1‐ylmethyl)pyridine]	79.2 ± 9.3%	
CN1CCN(c2ccc(N)cc2)CC1 [compound 562, 4‐(4‐methylpiperazino)aniline]	15.6 ± 6.1%	
COC(=O)c1cscc1N [compound 244, methyl 4‐aminothiophene‐3‐carboxylate]	39.5 ± 14.5%	
CCOC(=O)Cc1csc(C)n1 [compound 494, ethyl 2‐(2‐methyl‐1,3‐thiazol‐4‐yl)acetate]	107 ± 6.4%	
Cc1cccc(O)n1 [compound 19, 6‐methylpyridin‐2‐ol]	94.5 ± 12.2%	

Where two headings read alike, the source gives them in different places.
